The record followed here is PubChem BioAssay AID485344 (National Center for Advancing Translational Sciences (NCATS), 2010).

SMILES strings stand for the structures. Among all 340,000 compounds or so, about 6,900 (2%) were called active. Rule as the data show it: active = inhibition above about 30%; inactive = below that, where a call was filed. Only a part is listed here, and it is no random draw. The source gives no active or inactive call for entries shown without one. More than one record can exist for a structure, and the calls need not agree.

Chain of UniProt P14416 (P14416 whole entry, looked up): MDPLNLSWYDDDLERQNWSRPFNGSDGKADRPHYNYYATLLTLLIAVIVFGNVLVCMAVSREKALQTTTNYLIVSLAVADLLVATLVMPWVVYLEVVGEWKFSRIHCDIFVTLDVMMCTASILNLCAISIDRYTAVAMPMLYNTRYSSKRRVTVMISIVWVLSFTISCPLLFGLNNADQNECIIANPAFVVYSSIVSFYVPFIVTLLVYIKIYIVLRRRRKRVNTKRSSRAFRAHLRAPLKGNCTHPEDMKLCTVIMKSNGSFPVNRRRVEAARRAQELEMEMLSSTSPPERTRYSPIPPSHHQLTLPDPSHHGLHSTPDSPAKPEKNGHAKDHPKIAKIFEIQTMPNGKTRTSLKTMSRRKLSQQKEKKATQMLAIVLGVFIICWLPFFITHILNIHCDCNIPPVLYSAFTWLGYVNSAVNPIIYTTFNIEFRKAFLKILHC

For this experiment, the target named is D(2) dopamine receptor (Homo sapiens) (UniProt P14416). Briefly: HTS Assay for Allosteric Antagonists of the Human D2 Dopamine Receptor: Primary Screen for Antagonists. Also: 0% is about no effect. The note with it: HEK293 TREx D2 cells, calcium flux, dopamine EC80; at 10 µM; stronger effect = higher value. A digest of the protocol:
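In this primary screen, negative modulation is detected by tracking calcium flux after an EC80 dopamine challenge in inducible HEK293 T-REx D2 cells preexposed to test compound for 180 s.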
The term inhibition denotes the drop in the measured response relative to a control, in per cent. For `COc1ccccc1Nc1sc(C(=O)c2ccc(F)cc2)c(N)c1S(=O)(=O)c1ccc(C)cc1`, the inhibition was -0.204%.

Take `Cc1cccc(CC(=O)N2CC(=O)Nc3ccc(Br)cc3C2c2ccc(F)cc2)c1` (stereo unspecified): the inhibition was determined as 0.739%. As to `CCc1cccc(-n2nnc(-c3nsc(NC(=O)c4cccc(OC)c4)n3)c2C)c1`, the inhibition turned out to be 0.809%. With `O=C(Cn1ncc2c3ccccc3n(Cc3ccccc3F)c2c1=O)NCc1ccccc1Cl`, the inhibition came to 7.72%.

Consider `Cc1cc2c(cc1S(=O)(=O)Nc1cccc(C#N)c1)OCC(=O)N2`, for which the inhibition is -6.18%. Take `Cc1ccc(C(=O)N/C(=C\c2sccc2C)C(=O)NCCCN2CCOCC2)cc1`: the inhibition was active: 31.3%. Take `COc1ccc(-n2nc(C(=O)N3CCCCC3C)c3c4ccccc4n(C)c3c2=O)cc1Cl` (stereo unspecified): the inhibition came out at 12.6%. Take `N#Cc1ccc(-c2cccs2)nc1SCc1ccc(Br)cc1`: the inhibition is -2.92%. For `COc1cccc(C(=O)Nc2ccccc2C(=O)OCc2cc(=O)n3c4c(sc3n2)CCCC4)c1`, the inhibition came to 4.2%. On to `COc1ccc(CNC(=O)CN(C)S(=O)(=O)c2ccc3nc(C)sc3c2)cc1`, for which the inhibition turned out to be 1.42%. On to `CCOC(=O)c1ccc(NC(=O)Cn2c(=O)cc(C)c3c(C)nn(-c4ccc(CC)cc4)c32)cc1`, for which the inhibition amounted to 0.409%. Next, `CC(C)N(C(=O)CSc1cn(CC(=O)N2CCCCCC2)c2ccccc12)C(C)C`: 2.68%. `Cc1coc2c(C)c3oc(=O)c(CCC(=O)NCCc4ccccc4F)c(C)c3cc12`: the inhibition came to 6.96%.

As for `CCc1ccc(CNC(=O)CCc2c(C)nn(-c3ccc(N4CCCC4)nn3)c2C)cc1`, the inhibition was 17.6%. In the case of `CC(C)c1nnc(N2C(=O)c3oc4ccccc4c(=O)c3C2c2ccccc2F)s1` (stereo unspecified), the inhibition was -0.201%. For `CCN(CC)c1cc(C)c2cc(NC(=O)/C=C/c3cc(OC)c(OC)c(OC)c3)ccc2n1`, the inhibition was -8.12%. Take `COc1ccc(C(CNC(=S)NCc2ccccc2)N2CCCC2)cc1` (stereo unspecified): the inhibition is active: 40.5%. `O=C(CSc1nccn1Cc1ccc(F)cc1)Nc1nc2ccccc2s1`: the inhibition was -3.33%. On to `CN(C)CC/C=C1\c2ccccc2Sc2ccc(Cl)cc21`, for which the inhibition was active: 84.8%.

For `CCN(Cc1ccccc1)C(=O)C1CCN(S(=O)(=O)c2ccc3c(c2)CCCN3C(C)=O)CC1`, the inhibition was -8.3%.

In the case of `CCOC(=O)c1c(C)n(-c2ccc(OC)cc2)c2ccc(OC(=O)COc3ccccc3)cc12`, the inhibition amounted to 7.7%. As for `Cc1ccc(-n2ncc3c(Nc4cccc(Cl)c4)ncnc32)c(C)c1`, the inhibition is 3.91%. Take `O=C(Cn1nnnc1-c1ccccc1F)Nc1ccc(OC(F)(F)F)cc1`: the inhibition was -21.8%. Next, `O=C(Cc1ccc(Cl)cc1)Nc1ccc(Br)cc1`: active: 43.9%; `Fc1ccccc1-c1nc(N2CCN(c3cccc(Cl)c3)CC2)c2ccccc2n1`: -0.238%; `COCCNC(=O)Cn1ccc2cc(S(=O)(=O)N3CCCCCC3)ccc21`: 18.3%. As for `CCn1c(=O)c2c(nc3n2CCN3c2ccc(OC)cc2)n(C)c1=O`, the inhibition is -4.79%. For the compound `Cc1cccc(N2CCN(CC(O)COc3ccc(Cl)cc3)CC2)c1` (stereo unspecified), the inhibition was active: 58.3%.

Consider `Cc1ccc(-c2noc(CCC(=O)N(C)c3ccccc3F)n2)cc1`, for which the inhibition is 7.13%. Next, `Nn1c(SCC(=O)NC(=O)NC2CCCC2)nnc1-c1ccccc1F`: active: 88.5%; `Cc1ccc(C2CC(=O)Nc3cc4c(cc32)OCCO4)cc1Br` (stereo unspecified): -6.2%; `Cc1ccc2oc(=O)cc(CN3CCN(C/C=C/c4ccccc4)CC3)c2c1`: active: 58.4%. Regarding `Cc1c(O)c(=O)ccn1C`, the inhibition was active: 31.4%. The figure for `O=C(Nc1ccc(S(=O)(=O)N2CCC(c3nc4ccccc4s3)CC2)cc1)c1ccccc1` is 11.8%; for `COC(=O)c1nnn(CC(=O)NC(=O)Nc2ccc(F)cc2)c1C(=O)OC` it is 3.9%; for `CC(=O)N1CCc2cc(Br)cc(S(=O)(=O)N3CCC(C(=O)Nc4cccc(C)c4C)CC3)c21` it is -8%.

Take `Cc1ccc(CNC(=O)Nc2cc(C(=O)NCc3cccc(F)c3)ccc2N2CCCC2)cc1`: the inhibition was -4.46%. `CC1CCCCN1Cc1c(O)ccc2c(=O)c(-c3ccccc3Cl)c(C(F)(F)F)oc12` (stereo unspecified): the inhibition was -0.846%. `CCCCn1c(CNC(=O)C23CC4CC(CC(C4)C2)C3)nnc1SCC(=O)Nc1ccc(C)cc1`: the inhibition is -6.09%. With `Cc1ccc(CN(C(=O)COc2ccccc2Cl)c2ccccn2)o1`, the inhibition was -14.4%. Take `Cc1cccc(NC(=O)Cn2c(=O)n(Cc3ccc4c(c3)OCO4)c(=O)c3oc4ccccc4c32)c1C`: the inhibition was found to be 12.9%. Next, `COc1ccc(Nc2c3c(nc4ccccc24)CCC3)cc1Cl`: -19%. Take `CCOc1ccc(NC(=O)Cn2c(=O)n(Cc3ccc4c(c3)OCO4)c(=O)c3ccc(C(=O)NC4CCCCC4)cc32)cc1`: the inhibition is -10.1%. In the case of `Cc1ccc(CNS(=O)(=O)c2ccc(C(=O)N(C)C)s2)cc1`, the inhibition came out at 9.99%. The figure for `CCn1cc(S(=O)(=O)c2cc(C)cc(C)c2)c(=O)c2cc(F)c(N3CCCCC3)cc21` is 14.8%; for `CC(C)(C)C1CCc2c(sc(NC(=O)C3c4ccccc4Oc4ccccc43)c2C(N)=O)C1` (stereo unspecified) it is 5.82%; for `CCC(=O)N1c2ccc(S(=O)(=O)CCC(=O)NCc3ccccc3OC)cc2CC1C` (stereo unspecified) it is 5.72%.

Regarding `CN(C(=O)CC(=O)Nc1ccc2nc3n(c(=O)c2c1)CCCCC3)c1ccccc1F`, the inhibition amounted to 2.26%. As to `COc1ccc(OC)c(S(=O)(=O)N2CCC(n3c(C)nc4cccnc43)CC2)c1`, the inhibition was -5.11%. For `CCOC(=O)c1c(C)sc(-c2c(-c3ccccc3)[nH]c3[nH]c(=O)[nH]c(=O)c23)c1O`, the inhibition was -6.27%. Turning to `CN(Cc1ccccc1)C(=O)CSc1nnc(-c2cccc(Cl)c2)o1`, the inhibition was -11.1%.

Regarding `CCc1ccc(CNC(=O)C2COc3ccc(OC)cc3C2)cc1` (stereo unspecified), the inhibition was 21.4%. The figure for `COc1ccc(-c2noc(-c3ccc(N4CCOCC4)c([N+](=O)[O-])c3)n2)cc1` is -15.6%. The figure for `CCc1ccc(S(=O)(=O)NCc2ccc3c(c2)CCN3C(=O)c2ccc(C)cc2)cc1` is 17.2%. In the case of `CC1=C(C(=O)Nc2ccccc2C)C(c2cccs2)n2nc(SCc3ccccc3)nc2N1` (stereo unspecified), the inhibition is -10.2%. On to `COc1ccc(NCc2cccn2-c2nnc(N3CCCCCC3)s2)cc1`, for which the inhibition was -0.958%. Regarding `Cc1ccc(S(=O)(=O)c2cn(Cc3ccccc3)c3cc(N4CCCCC4)c(F)cc3c2=O)cc1`, the inhibition worked out at 5.62%.

With `CC(C)CCOc1ccc(Cn2c(=O)oc3ccccc32)cc1`, the inhibition is 6.17%.

As for `COc1ccc(NC(=O)CSC2=Nc3ccccc3C3=NC(CC(=O)NCCc4ccccc4)C(=O)N23)cc1` (stereo unspecified), the inhibition was determined as 11.5%.

In the case of `O=C(NCc1ccco1)c1ccc(Cn2c(SCc3ccccc3)nc3cccnc32)cc1`, the inhibition was 0.641%. On to `CC(=O)c1ccc(NC(=O)C2CCN(c3nnc(C)c4c(C)n(-c5ccccc5)nc34)CC2)cc1`, for which the inhibition was -1.05%.
